Measurements from the RNAGym collection of RNA variant scans (doi:10.1073/pnas.2313332121).
This sample is rich in variants without activity.

B1: TPR 5TU (parent)
chain: GGAUCUUCUCGAUCUAACAAAAAAGACAAAUCUGCCACAAAGCUUGAGAGCAUCUUCGGAUGCAGAGGCGGCAGCCUUCGGUGGCGCGAUAGCGCCAACGUUCUCAACUAUGACACGCAAAACGCGUGCUCCGUUGAAUGGAGUUUAUCAUG

Variants of: B1
Experiment: polymerase ribozyme fitness, log enrichment relative to wild type (log ratio); higher = more active; in vitro selection for triplet polymerase activity
Method in brief: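 Mutant libraries were PCR-built and transcribed for each subunit of a heterodimeric triplet polymerase ribozyme and selected for one round in triplicate at −7 °C, frozen, before gel excision of extended constructs and streptavidin-bead capture. Input and output libraries were Illumina-sequenced, keeping genotypes with ≥10 input reads and ≥1 read per output. Fitness is a logarithmic ratio of genotype to wild-type enrichment, in base 2, using inverse-variance-weighted replicate averages.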
In the case of A22C A40C U55A C76U U78G G86A, the “polymerase ribozyme fitness (log ratio)” value is reported as no more than -4.2. With A21C U101G C103A C108U the “polymerase ribozyme fitness (log ratio)” value was no more than -4.2. For A21C G25U C36U G48A A49C C57U C75G C95U, the “polymerase ribozyme fitness (log ratio)” value was no more than -4.2. For A21C G25C A52C A89U C118A A119C, the “polymerase ribozyme fitness (log ratio)” value was -3.52. In the case of A21U A47C C51U C95A C103A, the “polymerase ribozyme fitness (log ratio)” value is reported as no more than -4.2. In the case of A22G A47C G59C C95U U104G A120G U145A C149A, the “polymerase ribozyme fitness (log ratio)” value is reported as no more than -4.2. With A21G G48A U61G C79G C93G C116G A142U G143A the “polymerase ribozyme fitness (log ratio)” value was no more than -4.2. In the case of A21C G42C C79A C96U A115G C118G, the “polymerase ribozyme fitness (log ratio)” value is reported as no more than -4.2. With A22C C57A C118U the “polymerase ribozyme fitness (log ratio)” value was -1.03. In the case of A22C G50C U61A C87A, the “polymerase ribozyme fitness (log ratio)” value is reported as no more than -4.2. For A21U A23G A26G G84U G86U G136U U148G, the “polymerase ribozyme fitness (log ratio)” value was no more than -4.2. With A22C G83U U90C C105A U135C G140U the “polymerase ribozyme fitness (log ratio)” value was no more than -4.2. For A22G A24G G59U C87G A110G G143U G152C, the “polymerase ribozyme fitness (log ratio)” value was no more than -4.2. In the case of A22C A24C U61G G88U, the “polymerase ribozyme fitness (log ratio)” value is reported as no more than -4.2. In the case of A21G A29U A39C U53A U77C G83A G86A C96A C118A A137U, the “polymerase ribozyme fitness (log ratio)” value is reported as no more than -4.2. With A21U G50C U53A G68A G80A U145A the “polymerase ribozyme fitness (log ratio)” value was no more than -4.2. In the case of A22C A29G C54G G86C A106C G126A G133A, the “polymerase ribozyme fitness (log ratio)” value is reported as no more than -4.2. With A21G A23G G128C the “polymerase ribozyme fitness (log ratio)” value was no more than -4.2. With A21C U45A U61A C93A G117U G128A the “polymerase ribozyme fitness (log ratio)” value was no more than -4.2. In the case of A21U A26C U45C G58A G62A U77C C85U A122G, the “polymerase ribozyme fitness (log ratio)” value is reported as no more than -4.2. With A21C U56A C76A G84C C87U U90G U127G the “polymerase ribozyme fitness (log ratio)” value was no more than -4.2. With A22C C35G G92A the “polymerase ribozyme fitness (log ratio)” value was no more than -4.2. With A21U C93G A107G the “polymerase ribozyme fitness (log ratio)” value was no more than -4.2. In the case of A21G C43U U44C A64U A73G C103G G117A A121C, the “polymerase ribozyme fitness (log ratio)” value is reported as no more than -4.2. For A21G A29U C76U C79G, the “polymerase ribozyme fitness (log ratio)” value was no more than -4.2. For A21C G81C G88A A107G, the “polymerase ribozyme fitness (log ratio)” value was no more than -4.2. With A22C A41U C93A A120G U130G the “polymerase ribozyme fitness (log ratio)” value was no more than -4.2. In the case of A22C C35A G42A G86C C96U U111G, the “polymerase ribozyme fitness (log ratio)” value is reported as no more than -4.2. With A22C A24C G25A A40G G74A U77C G141A the “polymerase ribozyme fitness (log ratio)” value was no more than -4.2. For A21G C27G A29C G92A G100C A119C C129G U151C, the “polymerase ribozyme fitness (log ratio)” value was no more than -4.2. For A21U A24G A37C U61A C87U, the “polymerase ribozyme fitness (log ratio)” value was no more than -4.2. With A22G C32A G68A G80C C87U the “polymerase ribozyme fitness (log ratio)” value was no more than -4.2. In the case of A21C G58C U78G G81A A98C C108G, the “polymerase ribozyme fitness (log ratio)” value is reported as no more than -4.2. For A21C G92A G128U U144G U145G, the “polymerase ribozyme fitness (log ratio)” value was no more than -4.2. For A21U G48A G143A, the “polymerase ribozyme fitness (log ratio)” value was no more than -4.2. In the case of A21G U144A, the “polymerase ribozyme fitness (log ratio)” value is reported as 0.357. In the case of A21G A39C C108A A122C G133C G143C, the “polymerase ribozyme fitness (log ratio)” value is reported as no more than -4.2. In the case of A22C G67C G68A G88A U148A, the “polymerase ribozyme fitness (log ratio)” value is reported as no more than -4.2. In the case of A21U A23U G59C U77A C99G G117A A137U U139A, the “polymerase ribozyme fitness (log ratio)” value is reported as no more than -4.2. In the case of A21U A23U A24C C54U G81A C85U, the “polymerase ribozyme fitness (log ratio)” value is reported as no more than -4.2. For A21C G86U A110G C125U U148C, the “polymerase ribozyme fitness (log ratio)” value was no more than -4.2. For A21U G48C G83A C118G U145A, the “polymerase ribozyme fitness (log ratio)” value was -2.76. For A22C C27G A37C A73G U146A G152U, the “polymerase ribozyme fitness (log ratio)” value was no more than -4.2. In the case of A22C A49C, the “polymerase ribozyme fitness (log ratio)” value is reported as no more than -4.2. For A21C G83C C105G A115G U145A, the “polymerase ribozyme fitness (log ratio)” value was no more than -4.2. In the case of A21U C57A A89U, the “polymerase ribozyme fitness (log ratio)” value is reported as -0.571. In the case of A22C A26U U31C A37C U56C A73C A91C, the “polymerase ribozyme fitness (log ratio)” value is reported as no more than -4.2. For A21G C32G A40G A41U C51U U53C G59A G83U C129U U134C G140C, the “polymerase ribozyme fitness (log ratio)” value was no more than -4.2. With A22C A23U U53A C79A A91G C93U G94C the “polymerase ribozyme fitness (log ratio)” value was no more than -4.2. For A21C G34U C63A G84A, the “polymerase ribozyme fitness (log ratio)” value was no more than -4.2. In the case of A21G G46A A47C C51A A52C C72U A73U C79U C108G C116G C149G, the “polymerase ribozyme fitness (log ratio)” value is reported as no more than -4.2. In the case of A21G G42U A60G C87U U127C G140U, the “polymerase ribozyme fitness (log ratio)” value is reported as no more than -4.2. With A21C G67C G80U A110U the “polymerase ribozyme fitness (log ratio)” value was no more than -4.2. With A21G A29U G50C A98U C125U U127A the “polymerase ribozyme fitness (log ratio)” value was no more than -4.2. In the case of A21U C35U U45A A49C G58C C87U G128A, the “polymerase ribozyme fitness (log ratio)” value is reported as no more than -4.2. In the case of A21U U56A A60U C93A A106U A113U C125U A137G, the “polymerase ribozyme fitness (log ratio)” value is reported as no more than -4.2. In the case of A21U C51A U56A C76U G88C, the “polymerase ribozyme fitness (log ratio)” value is reported as no more than -4.2. With A21G A23U C36G A73C C96U the “polymerase ribozyme fitness (log ratio)” value was no more than -4.2. In the case of A21U C43A U61A G67U C79U G84C A89C, the “polymerase ribozyme fitness (log ratio)” value is reported as no more than -4.2. In the case of A22G A23U A52U A60U G83A G92A U146G, the “polymerase ribozyme fitness (log ratio)” value is reported as no more than -4.2. With A21U C85A C87U U101G A119U G126A the “polymerase ribozyme fitness (log ratio)” value was no more than -4.2. With A21U A29U G67U C69G G133U the “polymerase ribozyme fitness (log ratio)” value was no more than -4.2. For A21C G42C U61A A66C G84A C93A C95G, the “polymerase ribozyme fitness (log ratio)” value was no more than -4.2. With A22C G48A U55A G62U C87U U101G U151A the “polymerase ribozyme fitness (log ratio)” value was no more than -4.2. With A21U A23C C38A C99G A142C the “polymerase ribozyme fitness (log ratio)” value was no more than -4.2. In the case of A21C G25A U31G A66G C69A C85A G92A, the “polymerase ribozyme fitness (log ratio)” value is reported as no more than -4.2. For A21G A28U A37G A73G A91C A106C, the “polymerase ribozyme fitness (log ratio)” value was no more than -4.2. In the case of A22C U53A G80A U82C C85A G92C G124U, the “polymerase ribozyme fitness (log ratio)” value is reported as no more than -4.2. For A22C G34U U82A C93A, the “polymerase ribozyme fitness (log ratio)” value was no more than -4.2. With A21U G46U U55A U56G G84A U151G the “polymerase ribozyme fitness (log ratio)” value was no more than -4.2. With A21U A26U U55A G58A A91C C118G the “polymerase ribozyme fitness (log ratio)” value was no more than -4.2. With A21U G46C G59C C93G the “polymerase ribozyme fitness (log ratio)” value was no more than -4.2. In the case of A21U C51U A106U, the “polymerase ribozyme fitness (log ratio)” value is reported as -2.08. In the case of A22G A73U C76G C85G C95A C96U, the “polymerase ribozyme fitness (log ratio)” value is reported as no more than -4.2. In the case of A21U A26U C38G G83A C114A, the “polymerase ribozyme fitness (log ratio)” value is reported as no more than -4.2. With A21C G50A C54U G59A G68C C87U A113U A147G U148G the “polymerase ribozyme fitness (log ratio)” value was no more than -4.2. With A21U A30G U53A A64U C87U G100A U102A the “polymerase ribozyme fitness (log ratio)” value was no more than -4.2. For A21C G42A A52C C93U G141A, the “polymerase ribozyme fitness (log ratio)” value was no more than -4.2. In the case of A21G C54A A73G C87U C96U U151C, the “polymerase ribozyme fitness (log ratio)” value is reported as no more than -4.2. In the case of A21U C32G A73U C79G G88A, the “polymerase ribozyme fitness (log ratio)” value is reported as no more than -4.2. For A21G C27A G50U C85U C123G, the “polymerase ribozyme fitness (log ratio)” value was no more than -4.2. With A21G G25C C51U C93A the “polymerase ribozyme fitness (log ratio)” value was no more than -4.2. In the case of A21U G42A G94A, the “polymerase ribozyme fitness (log ratio)” value is reported as no more than -4.2.
